Hit rate of the full screen: of about 48,000 compounds, about 1,200 (2.5%) were called active. Roughly 2% stayed inconclusive and do not appear here.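 The calls were made as follows: active = activation of at least 60% and not above a set upper limit (about 1 call in 100 departs from these limits); inconclusive = activation of 40% to 60%, or above that upper limit; inactive = activation under 40%.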 The list shows a part of the results.
The compounds below were run against Probable G-protein coupled receptor 32 (Homo sapiens) (UniProt O75388) (assay: qHTS for Agonists of Human Resolvin D1 Receptor DRV1). Details: CHO-K1 GPR32 beta-arrestin PathHunter luminescence, 90 min; at 76.9 µM; active compounds read high; zero percent set by DMSO-only wells.
Chain of UniProt O75388 (O75388 whole entry, looked up): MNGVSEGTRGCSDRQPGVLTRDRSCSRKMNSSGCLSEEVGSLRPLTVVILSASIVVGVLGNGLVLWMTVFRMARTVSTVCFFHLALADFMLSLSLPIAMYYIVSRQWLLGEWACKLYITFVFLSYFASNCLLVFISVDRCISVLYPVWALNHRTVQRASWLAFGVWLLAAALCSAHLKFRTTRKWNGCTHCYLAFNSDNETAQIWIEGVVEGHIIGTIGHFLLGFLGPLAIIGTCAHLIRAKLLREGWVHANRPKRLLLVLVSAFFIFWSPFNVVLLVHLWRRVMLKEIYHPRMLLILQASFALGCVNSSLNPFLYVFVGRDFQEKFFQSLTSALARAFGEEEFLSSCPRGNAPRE
Summary of the method: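 Readings come from a cell-based beta-arrestin complementation format: CHO-K1 GPR32 stable cells (2,500/well) treated 90 min with compounds, then beta-Gal substrate added for 1 h before chemiluminescence imaging.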
Also: 0% is about no effect.

| SMILES | activation |
| --- | --- |
| CCCCOc1ccccc1NC(=O)CC1Sc2ccccc2NC1=O (centres undefined) | inactive: -8.46% |
| COc1ccc(NC(=O)c2sc3nc4n(c(=O)c3c2C)CCC4)c(OC)c1 | inactive: -2.34% |
| CCOC(=O)N1CCN(c2ncc3c(n2)CC(c2ccc(OC)c(OC)c2)CC3=O)CC1 (centres undefined) | inactive: 48.3% |
| COc1ccc(CCNC(=O)CCc2c(C)nc3cc(-c4ccc(Cl)cc4)nn3c2C)c(OC)c1 | inactive: 0.99% |
| Cc1noc(/C=C/c2ccccc2F)c1S(=O)(=O)N1CCC(C(=O)NCc2ccco2)CC1 | inactive: -22.3% |
| CCOC(=O)c1ccccc1NC(=O)N1CCCn2nc(C)cc21 | inactive: -20% |
| COc1ccc(C(=O)Nc2cccc(OCc3cc(=O)n4c5c(sc4n3)CCCC5)c2)cc1OC | active: 63.4% |
| Cc1cc(C)cc(N2C(=O)CSC23C(=O)N(CC(=O)NC2CCCCC2)c2ccccc23)c1 (centres undefined) | inactive: -8.6% |
| CCc1ccc(NC(=O)Cn2c(=O)n(Cc3ccc(C)cc3)c(=O)c3cccnc32)cc1 | inactive: -5.52% |
| CC(=O)N1CCCc2cc(S(=O)(=O)N3CCC(C(=O)N(C)C4CCCCC4)CC3)ccc21 | inactive: 6.57% |
| Cc1ccccc1C(=O)Nc1nnc(S(=O)(=O)N2CCc3ccccc32)s1 | inactive: 1.11% |
| CCOc1ccc2nc(N3CCC(C(=O)Nc4cc(C)ccc4C)CC3)sc2c1 | inactive: -0.711% |
| Cc1ccc(Cl)cc1NC(=O)CCn1c(=O)c2cccn2c2cccnc21 | inactive: -7.52% |
| COc1ccc(NC(=O)CSc2nc(-c3cccs3)cc(C(F)(F)F)n2)c(OC)c1 | inactive: 45.6% |
| O=C(NC1CCCCC1)c1ccc(CSc2nc3ccncc3n2Cc2ccccc2F)cc1 | inactive: -7.63% |
| Cc1ccc(NC(=O)Cn2cc3c(n2)CCCC3)c(C)c1 | inactive: -0.721% |
| CCc1ccc(NC(=O)CSc2ccc(-c3cccs3)nn2)cc1 | inactive: 19.4% |
| Oc1c(C(c2ccccc2Cl)N2CCN(Cc3ccccc3)CC2)sc2nc(-c3ccco3)nn12 (centres undefined) | active: 94.3% |
| CCN(CC)CCCNC(=O)CSc1nc(-c2ccc(OC)cc2)cc(C(F)(F)F)n1 | inactive: -10.1% |
| O=C(CSCc1cnn(-c2ccccc2)c1-n1cccc1)NCc1ccc(F)cc1 | inactive: -13.5% |
| Cc1noc(Cn2c(=O)c3cc4c(cc3n(CC(=O)Nc3ccccc3F)c2=O)OCO4)n1 | inactive: -9.36% |

| SMILES | activation |
| --- | --- |
| CCOC(=O)C1CCC(CN(Cc2ccc(OC)cc2)S(=O)(=O)c2ccc(F)c(C(=O)Nc3cc(C)ccc3C)c2)CC1 (centres undefined) | inactive: -9.36% |
| CCOC(=O)c1cnc2ccc(OCC)cc2c1N1CCN(c2ccccc2F)CC1 | inactive: -2.98% |
| CCOc1ccc(NC(=O)c2ccc3snnc3c2)cc1 | inactive: 0.468% |
| Cc1nc(N2CCCC2)c2c(C(=O)Nc3ccc(Br)cc3F)c(C)oc2n1 | inactive: -36% |
| COc1ccc(-c2csc3nc(-c4ccccc4)oc(=O)c23)cc1OC | inactive: -3.99% |
| Cc1ccccc1C(=O)Nc1nc(-c2ccc(Br)cc2)ns1 | inactive: 24.2% |
| CCOC(=O)c1c(C)n(-c2ccccc2)c2ccc(OC(=O)c3cccc(Cl)c3)cc12 | inactive: -11.5% |
| CC(C)NC(=O)C1CCC(Cn2c(=O)c3sccc3n(CC(=O)Nc3ccccc3)c2=O)CC1 (centres undefined) | inactive: -14.4% |
| FC(F)(F)c1cc(-c2cccc(Br)c2)nc2ncnn12 | inactive: -2.62% |
| CC(=O)c1cc(-c2ccccc2)n(CC(=O)NCCc2ccc(C)cc2)c1C | inactive: -13.4% |
| CC(C)Oc1ccc(CNC(=O)C2CCN(C(=O)N3CC(C)Oc4ccccc43)CC2)cc1 (centres undefined) | inactive: 5.11% |
| Cc1cccc(-c2nc(CSc3nncn4c3cc3sccc34)c(C)o2)c1 | inactive: 3.77% |
| CCOC(=O)c1ccc(CN(Cc2ccccc2)S(=O)(=O)c2ccc(Cl)cc2)cc1 | inactive: -16.7% |
| CN(C(=O)CSc1nc2ccccc2n1CC(=O)N(C)C1CCCCC1)c1ccccc1 | inactive: -5.61% |
| Cc1ccc2c(CNC3CCCC3)c(C(=O)O)n(Cc3ccc(F)cc3)c2c1 | inactive: -1.15% |
| Cc1ccc(C)c(NC(=O)c2cc(S(=O)(=O)NCCc3ccccc3)ccc2F)c1 | inactive: -15% |
| COc1ccc(NC(=O)C2CCN(S(=O)(=O)c3cc(-c4noc(C)n4)ccc3C)CC2)cc1 | inactive: 9.01% |
| Cc1cccc(NC(=O)CN2C(=O)CCn3nc(-c4cccn4C)cc32)c1C | inactive: -16.4% |
| Cc1noc(/C=C/c2ccccc2F)c1S(=O)(=O)N1CCC(C(=O)Nc2ccc(C#N)cc2)CC1 | inactive: -22.3% |
| CCCCNC(=O)CCn1c(=O)c2ccccc2n(Cc2cccc(Cl)c2)c1=O | inactive: -26.8% |
| CCOC(=O)C1CCCN(C(=O)c2ccc3c(c2)N(Cc2ccc(Cl)cc2)C(=O)c2ccccc2S3=O)C1 (centres undefined) | inactive: -1.68% |

| SMILES | activation |
| --- | --- |
| O=C(CSc1nc2ccsc2c(=O)n1-c1ccc(Br)cc1)NCc1ccccc1 | inactive: -36.5% |
| CCOC(=O)c1ccc(NC(=O)c2ccc(CN3C(=O)CCn4nc(C)cc43)cc2)cc1 | inactive: -4.09% |
| CCCCN(CC)C(=O)C1CCCN(c2ncnc3c2nc2n3CCCCC2)C1 (centres undefined) | inactive: 21.6% |
| CCOc1ccc(CNC(=O)CCn2c(=O)c3cccn3c3ccc(F)cc32)cc1 | inactive: -21% |
| Cc1ccccc1C(=O)N1CCC(N2CCN(Cc3ccc(F)cc3)C(=O)C2=O)CC1 | inactive: -7.72% |
| O=C(CSc1nnc2scc(-c3ccccc3)n12)Nc1ccc(Cl)cc1 | inactive: -23.7% |
| CCOC(=O)c1c(C)[nH]c(C)c1S(=O)(=O)N(C)CC(=O)NCc1cccc(Br)c1 | active: 101% |
| COc1ccc(NC(=O)NCCn2nnc3cc(S(=O)(=O)N(C)C)ccc32)cc1 | inactive: 8.23% |
| CC1CCN(c2ccc(-c3nc(-c4ccccc4)no3)cc2[N+](=O)[O-])CC1 | inactive: 5.75% |
| CCc1cccc(C)c1NC(=O)CCCN1C(=O)C(c2ccccc2)Oc2cccnc21 (centres undefined) | inactive: 5.79% |
| O=C(Cn1c(=O)c2ccccc2n2nncc12)Nc1cccc(F)c1 | inactive: 2.23% |
| O=C(NCc1nc2ccccc2[nH]1)c1cccc(Cl)c1 | inactive: 4.48% |
| Cc1cc(N2CCCCC2)nc2ccc(NC(=O)/C=C/c3ccc(OCCC(C)C)cc3)cc12 | inactive: 7.48% |
| CCc1cccc(C)c1NC(=O)CCCn1nc(C)c2sc3ccccc3c2c1=O | inactive: -10.7% |
| Cc1ccccc1Cn1cnc2nc3c(cc2c1=O)CC(C)CC3 (centres undefined) | inactive: -5.82% |
| CCOc1ccc2nc(S(N)(=O)=O)sc2c1 | inactive: -5.08% |
| COc1ccc(OC)c(NC(=O)CCNS(=O)(=O)c2cccc3nsnc23)c1 | inactive: 16.7% |
| COc1ccccc1CNc1ccc(-c2nc(-c3ccccn3)no2)cc1[N+](=O)[O-] | inactive: -11.3% |
| O=C(NCc1ccc(F)cc1)c1c2c(nc3ccccc13)C(=O)N(C1CCCCC1)C2 | inactive: -15.1% |
| COc1cc(Cl)c(C)cc1NC(=O)Cn1cc(S(=O)(=O)N2CCN(c3ccccc3F)CC2)c2ccccc2c1=O | inactive: -1.16% |
| Cc1cccc(CCNC(=O)C2CCC(CNS(=O)(=O)c3c(C)cc(C)cc3C)CC2)c1 (centres undefined) | inactive: -16.1% |

| SMILES | activation |
| --- | --- |
| O=C(Cc1ccc(NC(=O)N2CCCCc3ccccc32)cc1)NCc1ccccc1Br | inactive: -18% |
| CCc1ccc(NC(=O)CSc2nc3n[nH]c(C)c3c(=N)n2-c2ccc(C)cc2)cc1 | inactive: 43.2% |
| Cc1cccc(NS(=O)(=O)c2ccc3[nH]c(=O)[nH]c3c2)c1C | inactive: 13.3% |
| O=C(CCC1N=C2c3ccccc3N=C(SCC(=O)Nc3ccccc3F)N2C1=O)NCc1ccco1 (centres undefined) | inactive: -3.31% |
| N#Cc1ccc(OC(=O)c2cc(-c3ccc(Cl)cc3)on2)cc1 | inactive: 29.7% |
| Cc1ccc(NC(=O)CN(C)S(=O)(=O)c2ccc3c(c2)n(C)c(=O)c(=O)n3C)c(C)c1 | inactive: -3.55% |
| N[C@H](C(=O)O)c1ccc(O)cc1 | inactive: 4.94% |
| CCc1ccc(CN2C(=O)c3ccccc3C2C(=O)NC2CCCCCC2)cc1 (centres undefined) | inactive: -18.4% |
| CC(C)(C)C(=O)Nc1ccc(-c2nc3ccccc3s2)cc1 | inactive: -3.13% |
| CCOc1ccc(-c2c(C)nn3c(C)c(C(=O)NCc4cccc(OC)c4)cnc23)cc1OCC | inactive: 0.964% |
| COc1ccc(-n2ncc(C(=O)N3CCN(Cc4ccccc4)CC3)c2C2CCN(C(=O)OC(C)(C)C)CC2)cc1 | inactive: -2.76% |
| CCOc1cc(C(=O)N(Cc2nc(-c3ccc(C)cc3)no2)C(C)C)cc(OCC)c1OCC | inactive: -14.1% |
| CCc1cnc2c(c1SCc1c(F)cccc1Cl)c(=O)n(C)c(=O)n2C | inactive: -15% |
| Cc1oc(-c2ccccc2)nc1Cn1c(SCc2cccc(C(F)(F)F)c2)nc2cccnc21 | inactive: -12.8% |
| CCc1ccccc1Nc1nn2c(=O)c3ccc(C(=O)NC4CCC(C)CC4)cc3nc2s1 (centres undefined) | inactive: -2.5% |
| CC(=O)Nc1ccc(S(=O)(=O)NCc2ccc3c(c2)CCN3C(C)=O)cc1 | inactive: -2.35% |
| COc1ccc(CCNC(=O)CCCn2c(=O)c3ccccc3n(CC(=O)Nc3cccc(C)c3)c2=O)cc1OC | inactive: -4.95% |
| CCOC(=O)c1c(NC(=O)c2ccc(S(=O)(=O)N3CCC(C)CC3)cc2)sc2c1CCN(C(C)C)C2 | active: 78% |
| COc1ccc(C(=O)Nc2cnc3ccccn3c2=O)cc1 | inactive: -1.06% |
| Cc1nn(C(=O)COc2ccc(Cl)cc2)c(C)c1Sc1ccccc1 | inactive: 16.1% |
| CCOC(=O)c1ccc(NC(=O)CC2C(=O)N(c3ccccc3)C(=O)N2Cc2ccc(C)cc2)cc1 (centres undefined) | inactive: -9.62% |

Source: PubChem BioAssay AID1346428 (National Center for Advancing Translational Sciences (NCATS), 2018)
